# Experimental data reported in paper PMC4336329 (PLoS ONE, 2015).
# About 14,000 (4.5%) of roughly 310,000 compounds showed an effect of 50% or more. Effects have a minus sign here. The list shows a part of the results.
# Biological target: human ether-à-go-go-related gene (hERG) potassium channel (human, UniProt Q12809)
# Assay: primary screen, population patch clamp on CHO cells stably expressing hERG
# 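Note: peak tail current of the secondary pulse compared with the same well before compound.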
# Sequence of human ether-à-go-go-related gene (hERG) potassium channel (Q12809 whole entry, looked up): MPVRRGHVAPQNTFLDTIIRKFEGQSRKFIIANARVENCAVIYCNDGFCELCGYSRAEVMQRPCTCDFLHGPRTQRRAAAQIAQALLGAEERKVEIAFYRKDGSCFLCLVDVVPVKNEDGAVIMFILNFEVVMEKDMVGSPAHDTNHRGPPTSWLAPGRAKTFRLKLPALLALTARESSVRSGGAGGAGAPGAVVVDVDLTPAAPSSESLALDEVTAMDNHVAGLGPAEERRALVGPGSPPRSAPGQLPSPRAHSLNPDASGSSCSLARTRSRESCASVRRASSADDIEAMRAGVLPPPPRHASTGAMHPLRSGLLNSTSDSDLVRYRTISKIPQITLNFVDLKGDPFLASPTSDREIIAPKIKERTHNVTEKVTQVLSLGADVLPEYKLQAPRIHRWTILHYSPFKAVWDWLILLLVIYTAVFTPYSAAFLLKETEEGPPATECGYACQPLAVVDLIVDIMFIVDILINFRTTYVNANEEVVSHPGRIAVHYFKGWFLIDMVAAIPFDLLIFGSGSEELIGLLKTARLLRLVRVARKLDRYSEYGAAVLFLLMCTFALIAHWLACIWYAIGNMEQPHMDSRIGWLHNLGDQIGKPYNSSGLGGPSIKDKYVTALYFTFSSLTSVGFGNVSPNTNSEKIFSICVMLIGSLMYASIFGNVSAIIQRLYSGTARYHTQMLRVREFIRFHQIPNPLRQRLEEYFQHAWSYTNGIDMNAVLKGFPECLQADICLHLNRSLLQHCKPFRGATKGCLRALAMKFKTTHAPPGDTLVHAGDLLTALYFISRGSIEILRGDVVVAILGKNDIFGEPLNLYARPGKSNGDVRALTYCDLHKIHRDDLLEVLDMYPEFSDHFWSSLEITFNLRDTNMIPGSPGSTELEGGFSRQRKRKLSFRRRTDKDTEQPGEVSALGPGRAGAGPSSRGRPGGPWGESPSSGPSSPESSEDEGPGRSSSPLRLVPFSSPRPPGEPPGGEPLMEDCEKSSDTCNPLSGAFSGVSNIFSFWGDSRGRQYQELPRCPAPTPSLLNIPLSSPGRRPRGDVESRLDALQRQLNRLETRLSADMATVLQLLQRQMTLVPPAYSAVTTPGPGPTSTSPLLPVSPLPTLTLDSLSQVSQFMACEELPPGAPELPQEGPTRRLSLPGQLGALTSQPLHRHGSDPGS
row,SMILES,"hERG current change (%, negative = inhibition) at 10uM [%]"
1,Cc1cccc2nc(CNc3ccc(F)cc3)cn12,-16.1
2,CSc1ccccc1C(=O)N1CCN(c2ccc(F)cc2)CC1,-17.5
3,CC(C)Oc1c(Cl)cc(CNC(C)(C)CO)cc1Cl,0.775
4,O=C(C1CC1)N1CCc2cc(Br)cc(S(=O)(=O)NCc3ccco3)c21,-41
5,COc1ccc(NC(=O)c2cn(CCC#N)nc2-c2cccc([N+](=O)[O-])c2)cc1,-45.5
6,CCOC(=O)C1CCCN(S(=O)(=O)c2ccc3c(c2)N(C)C(=O)CC(=O)N3C)C1 (centres unmarked),9.56
7,CSc1ccc(S(=O)(=O)NCC(=O)OCC(=O)NCC2CCCO2)cc1[N+](=O)[O-] (centres unmarked),-2.8
8,O=C(COC(=O)/C=C/c1ccc(Cl)cc1)Nc1ccccc1-c1ccccc1,13.9
9,CCCCn1c(C)csc1=Nc1cccnc1,-2.02
10,COc1ccc(CN(C(=O)c2nsc(Cl)c2Cl)C(C(=O)NC2CCCC2)c2ccc(OC)cc2)cc1 (centres unmarked),-21.1
11,O=C(CCc1ccccc1)Nc1nnc(-c2ccccn2)o1,-2.73
12,Cc1ccc(CN2CCSc3ccc(C(=O)NCC4CCCO4)cc32)cc1 (centres unmarked),-10.4
13,Cn1c(=O)n(CCO)c(=O)c2c1nc(Br)n2Cc1ccccc1,9.83
14,COC(=O)COc1ccc(S(=O)(=O)NC2CCCCCC2)cc1,-5.34
15,COc1cc(/C=C(\C#N)c2ccccn2)ccc1OCC(=O)Nc1cccc(C(F)(F)F)c1.Cl,0.582
16,Cc1ccc(NC(=O)c2c(C)nc3ccccn23)cc1C,24.1
17,COc1ccc(-n2c(=O)/c(=C\c3cccs3)s/c2=C(/C#N)C(=O)NCCN2CCOCC2)cc1,12.5
18,CCOC(=O)C1=C(C)OC(N)=C(C#N)C1c1ccc(OC)c(CSc2ccccn2)c1 (centres unmarked),-5.44
19,O=C(CCC1CCCC1)N1CCN(C(=O)C2CC2)CC1,5.86
20,CCCCn1c(N)c(N(CCC(C)C)C(=O)c2[nH]c(C)c(C(=O)OCC)c2C)c(=O)[nH]c1=O,-3.35
21,O=C(c1cc(COc2cccc(C(F)(F)F)c2)on1)N1CCC(Oc2cccnc2)CC1,-64.1
22,Cc1cccc(C(=O)Nc2ccc(C(=O)N/N=C/c3cccc(C)n3)cc2)c1,11.9
23,Cc1ccccc1NC(=O)CNc1ccccc1N1CCCCC1,11.9

row,SMILES,"hERG current change (%, negative = inhibition) at 10uM [%]"
1,CSc1nc(-c2ccco2)nn1C(=O)Cc1ccccc1,0.386
2,Nc1nc(SCC(=O)Nc2ccc(Oc3ccccc3)cc2)n[nH]1,-4.09
3,COc1cc(C2=NOC(C(=O)N3CCCc4ccccc43)C2)cc(OC)c1OC (centres unmarked),1.24
4,O=C(Nc1ccc(Cl)c(Cl)c1)OCCNC(=O)c1ccncc1,-4.86
5,Cc1ccc(C2(c3ccccc3)NC(=O)N(CC(=O)N3CC(=O)Nc4ccccc43)C2=O)cc1C (centres unmarked),-25.6
6,COC(=O)[C@@H]1C[C@@]2(O)[C@H](O)[C@H](O)[C@H](O)C[C@H]2N1Cc1cc(F)ccc1F,17.7
7,CCC(=O)NN1CCc2cc3ccc(C)cc3nc21,14.7
8,COc1ccccc1-c1cc(C(F)(F)F)c(C#N)c(=O)[nH]1,8.97
9,CSCCC(NC(=O)c1ccccc1Br)C(=O)N1CCC(C)CC1 (centres unmarked),16.6
10,Cc1nc(C(=O)NC2CCCCC2)sc1C1(C)CC(c2cccnc2)=NO1 (centres unmarked),2.76
11,COc1ccc(CCN(C)C(=O)CCNS(=O)(=O)c2ccccc2C(F)(F)F)cc1OC,9.73
12,COc1cc(CNCCCN2CCOCC2)ccc1OCC(=O)Nc1cccc(C(F)(F)F)c1.Cl,-56.6
13,CCOc1ccc(N(C)C(=O)CCc2nnc3ccc(N4CCOCC4)nn23)cc1,19
14,O=C(CSc1nc2ncccc2[nH]1)Nc1ccc2c(c1)OCCO2,2.63
15,CCOc1ccccc1NC(=O)CCS(=O)(=O)c1ccc2c(c1)CCN2C(C)=O,17.8
16,COc1cc2[nH]c3c(N4CCN(c5ccccn5)CC4)ncnc3c2cc1OC,13.1
17,CC(C)CCn1c(O)c(N=NC(=O)c2ccco2)c2ccccc21,4.25
18,COc1ccc(-c2cc(C(F)(F)F)nc(SCC(=O)Nc3ccc4c(c3)OCO4)n2)cc1OC,-9.52
19,CCNC(=S)N/N=C/c1cccc(C)c1,15.6
20,COC(=O)c1ccccc1NC(=O)Cn1c(SC)c(F)cnc1=O,-0.0708
21,CCOCCc1nn2c(=O)cc(CSCC(=O)Nc3ccccc3)nc2s1,1.66
22,CCc1cc2cc(C(=O)Nc3ccc(F)cc3)sc2s1,3.32
23,COC(=O)C1=C(c2cc3ccccc3s2)C[C@@H]2CC[C@H]1N2C(=O)NC1CCCCC1,-23.4

row,SMILES,"hERG current change (%, negative = inhibition) at 10uM [%]"
1,COc1cc2ccc(=O)oc2c(O)c1OCC=C(C)C,-0.468
2,Cc1nn(C)c(NC(=O)c2ccc(Cl)cc2)c1Cl,14.8
3,Cc1ccc(-n2nc3c(c2NC(=O)C2CC2)CS(=O)(=O)C3)cc1C,-11.2
4,Cc1ccc2nc3ccc(N4CCCCCCC4)nn3c(=O)c2c1,-18.1
5,O=C(Cn1cncn1)N/N=C/c1ccccc1O,6.77
6,CC(C)CNC(=O)C(=O)NCCC1CCCCN1S(=O)(=O)c1cccs1 (centres unmarked),-19
7,O=C1OC(/C=C/c2ccccc2)=NC/1=C\c1cccnc1,19.4
8,CCCOc1c(Br)cc(C2C3=C(CCCC3=O)N(CC)C3=C2C(=O)CCC3)cc1OC,-33.6
9,COc1ccc(CN(C(=O)c2ccccc2Br)C2CCS(=O)(=O)C2)cc1 (centres unmarked),-6.5
10,CCCC(=O)Nc1cccc(Oc2ccc3c(c2)C(=O)NC3=O)c1,-5.14
11,Cc1ccsc1C1C2=C(CC(C)(C)CC2=O)Nc2ncnn21 (centres unmarked),1.79
12,O=C(NNS(=O)(=O)c1ccc(F)cc1)c1cccc(O)c1,16.5
13,COc1cc(/C=N/NC(=O)c2nnn(-c3nonc3N)c2-c2cccs2)ccc1O,3.14
14,CCNC(=O)COc1ccc(-c2ccccc2)cc1,-19.4
15,COc1cc2c(cc1OC)C(=O)CCS2,-7.32
16,CNCc1ccccc1Sc1ccc(O)c(O)c1.O=C([O-])/C=C\C(=O)[O-],-38.4
17,CCCCn1c(N2CCCC2)nc2c1c(=O)[nH]c(=O)n2C,6.34
18,COc1cccc(NC(=O)CC2SC(=Nc3ccccc3)NC2=O)c1 (centres unmarked),-0.157
19,Cc1ccc(S(=O)(=O)NCC2CCC(C(=O)NCc3ccco3)CC2)cc1 (centres unmarked),-23.8
20,C=C1CCN([C@@H](CC(C)C)C(=O)NCCCc2ccccc2)S(=O)(=O)c2ccccc21,-21.1
21,O=C(CSc1nnc(Cc2ccccc2)o1)NC1CC2CCC1C2 (centres unmarked),-0.675
22,O=C(O)C(=O)O.c1ccc(-c2ccccc2OCCN2CCCCC2)cc1,-45.9
23,O=C(Nc1ncccc1O)c1ccc(OCC2CCCO2)cc1 (centres unmarked),21.3

row,SMILES,"hERG current change (%, negative = inhibition) at 10uM [%]"
1,COc1ccc(NC(C)=O)cc1NS(=O)(=O)c1ccc2c(c1)OCCO2,21.4
2,Cc1ccc(S(=O)(=O)NC(=O)c2ccccc2F)cc1,-10.5
3,COc1ccc(NC(=O)c2oc3ccccc3c2C)cn1,23.5
4,Cc1ccc(-c2ccc(/C=N\n3cnnc3)o2)c(Br)c1,4.33
5,CCC(C)(C)C1CCC(=NNS(=O)(=O)c2ccc(C)c([N+](=O)[O-])c2)CC1 (centres unmarked),8.84
6,S=C(NCCCN1CCOCC1)N1CCN(c2ccccc2)CC1,-1.28
7,COc1ccccc1C(=O)NCC(=O)n1nc(C)cc1C,22.8
8,CCn1c(SCC(=O)Nc2ccc(S(=O)(=O)Nc3ccccn3)cc2)nnc1-c1ccncc1,1.35
9,Cc1ccccc1NC(=O)COc1coc(CN2CCCc3ccccc32)cc1=O,-16.9
10,C=CCOn1c(=O)c(-c2ccc(Br)cc2)[n+]([O-])c2ccccc21,11.7
11,CCOC(=O)CSC1=C(C#N)C(c2sccc2C)CC(=O)N1 (centres unmarked),-23.6
12,Cc1ccnc2nc(C(=O)OCC(=O)c3ccc(Cl)cc3)nn12,12.6
13,COc1ccc(CCC(C)N2CCC(CO)(Cc3ccccc3)CC2)cc1 (centres unmarked),-73.4
14,Cn1c(SCCOc2ccccc2F)nc2ccccc2c1=O,10.2
15,CCC(=O)Nc1c2c(nc3c1CCC3)CCCC2,-7.07
16,CCOC(=O)C1=C(CSc2nc(C)cc(C)c2C#N)OC(N)=C(C#N)C1c1ccccc1.CN(C)C=O (centres unmarked),0.173
17,Cc1cc(C)c[n+](CC(=O)c2cc3ccccc3oc2=O)c1.[Br-],-36.1
18,CCOC(=O)c1c(NC(=O)CN(CC)CC)sc2c1CCC2,-9.74
19,CCOc1ccc(C(=O)c2cccs2)cc1,-6.82
20,Cc1ccc2nc(-c3ccc(NS(=O)(=O)c4ccccc4)cc3)sc2c1,11
